Measured values reported in PubChem BioAssay AID1508624 (National Center for Advancing Translational Sciences (NCATS), 2021).
Hit rate of the full screen: of about 48,000 compounds, about 120 (0.25%) were called active. Inconclusive results (about 4%) are left out. Calls come from the whole dose curve; as a rule, active = well fitted activation curve with a large enough effect; inconclusive = small, poorly fitted or top-dose-only effect, or another doubt; inactive = no such curve, though single readings can be large or run the other way. The list shows a part of the results.

Test: Primary qHTS for Identification of Small Molecule Activators of Huntingtin-Antisense Promoter Activity; note: nearly all actives have a fitted effect of over 55% in size
Settings: HEK293 HTT-AS promoter firefly luciferase reporter, 24 h; series mostly up to 57.5 µM; activity change, positive = activation: at the top concentration
Method in brief: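 HEK293 luciferase promoter-reporter cells (2,500/well) plated 24 h, then compounds added at up to 57.5 uM final for 24 h at 37 °C. Firefly luminescence by Dual-Glo, normalized to vehicle (0%) and zero RLU (-100%).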

Activity change, positive = activation, inactive:
CCOc1ccc(CCNC(=O)c2cc3cc4cc(OC)ccc4nc3s2)cc1OCC -16.3%
CCc1nn2c(=O)cc(COC(=O)c3cccc(NC(=O)COc4ccccc4)c3)nc2s1 33.6%
COc1ccc(-c2noc(N3CCN(c4ccc(Cl)cc4)CC3)n2)cc1OC -3.46%
CCOc1ccccc1NC(=O)C(=O)c1cc(C)n(-c2cccc(C)c2C)c1C -1.47%
CC(C)Cc1nn2c(=O)cc(COC(=O)c3ccccc3NC(=O)c3cccs3)nc2s1 -10.6%
COc1ccccc1NC(=O)C1=C(C)Nc2nc(SCc3ccccc3F)nn2C1c1ccncc1 (stereo not drawn) -8.49%
CCc1cccc(C)c1NC(=O)C1CCN(c2nnc(C)c3c(C)n(-c4ccccc4)nc23)CC1 -7.08%
Cc1cccc(NC(=O)C2CCN(S(=O)(=O)c3ccc4[nH]c5c(c4c3)CCCCC5)CC2)c1 -22%
Cc1cc(C)cc(NC(=O)Cn2cc(C(=O)c3ccncc3)c(=O)c3cc(C)c(C)cc32)c1 -22.2%
COc1ccc(CNC(=O)C2CCN(S(=O)(=O)c3ccc4nc5c(c(C(=O)O)c4c3)CCCC5)CC2)cc1 -6.08%
CCOc1ccc(NC(=O)CCc2nc3cccnc3n2Cc2ccc(OC)cc2)cc1 -24.6%
Cc1ccccc1CN1C(=O)c2ccccc2Sc2ccc(C(=O)O)cc21 -16.2%
O=C(O)COCCN1CCN(C(c2ccccc2)c2ccc(Cl)cc2)CC1 (stereo not drawn)
Cc1ccc(CS(=O)Cc2ccc(C(=O)NCc3ccccc3Cl)o2)cc1 (stereo not drawn) -16.4%
Cc1ccc(NC(=O)C2CCCN(c3cnccn3)C2)cc1Cl (stereo not drawn) 3.11%
Nc1nnc(SCC(=O)Nc2cccc(F)c2)s1 -9.09%
O=S(=O)(c1cc(Br)c(Br)s1)N1CCN(c2ccccc2)CC1 -8.19%
COc1ccccc1C(=O)Nc1cccc(OCc2cc(=O)n3c(C)csc3n2)c1 -22.2%
CC(C)c1ccc(NC(=O)C2CCN(S(=O)(=O)c3ccc(Br)s3)CC2)cc1 -35%
Cc1ccc(S(=O)(=O)c2nnn3c2nc(NCc2ccccc2)c2sccc23)cc1 -40.6%
CSc1nn(Cc2ccccc2C)c(NC(C)=O)c1S(=O)(=O)c1ccc(C)cc1 -13.8%
COc1ccc(NC(=O)CCc2nc3c(C)nn(-c4ccc(C)cc4)c3n(C)c2=O)c(OC)c1 -6.29%
CCOC(=O)CCn1c(=O)c2cccn2c2cccnc21 -2.09%
CCOc1ccc(-c2c(C)nn3c(C)c(C(=O)Nc4cccc(Cl)c4C)cnc23)cc1OCC -4.78%
Cc1cc2cc(CCNS(=O)(=O)c3ccc(Br)cc3)c(=O)[nH]c2cc1C -18.6%
COCCN1Cc2cccc(C(=O)Nc3ccc(C(=O)OC)cc3)c2C1=O -1.08%
O=C(CCS(=O)(=O)c1nc(-c2cccs2)cc(C(F)(F)F)n1)Nc1ccc(Br)cc1 -53.3%
N[C@@H]1CONC1=O
Cc1ccc2nc(-c3ccsc3)c(Nc3ccc(C(C)C)cc3)n2c1 9.04%
COc1ccccc1C(=O)Nc1ccc2nc(SCC(=O)N3CCCC3)sc2c1 -4.37%
COCCNC(=O)CCCn1c(SCC(=O)c2ccc(F)cc2)nc2c(sc3ccccc32)c1=O 0.687%
CCCCCn1c(=O)[nH]c2cc(C(=O)N3CCN(c4cccc(Cl)c4)CC3)ccc2c1=O -25.5%
Cc1ccccc1NC(=O)c1cc2sccc2n1Cc1ccc(F)cc1 -22.1%
CN(c1ccccc1)S(=O)(=O)c1nnc(NC(=O)c2ccco2)s1 -1.28%
COc1ccc(OC)c(CNC(=O)c2cc(S(=O)(=O)N3CCC(C)CC3)cn2C)c1 -33.2%
O=C(NC1CCN(Cc2ccccc2)CC1)c1ccc(Cn2c(=O)c3ccccc3n(Cc3ccc(F)cc3)c2=O)cc1 -12.6%
Cc1cc(C)cc(Oc2nc3ccccn3c(=O)c2/C=C(\C#N)c2nc3ccccc3s2)c1 2.86% [at 11.5 µM, percent change from vehicle, -100% = no light]
Cc1ccccc1OCCSc1nc2ccc(NC(=O)c3cccs3)cc2s1 -30.2%
Cn1c(=O)cc(SCC(=O)N2CCN(c3ccccc3F)CC2)c2ccc(Cl)cc21 11.2%
COCCCNC(=O)CSc1nc2cc3c(cc2c(=O)n1CCCC(=O)NCc1ccc2c(c1)OCO2)OCO3 -13%
CCn1nc(-c2ccccc2)c(-c2ccccc2)c(C(=O)Nc2ccc(NC(C)=O)cc2)c1=O -1.94%
Cc1ccc(Cn2ccnc2SCC(=O)Nc2nnc(C)s2)cc1 -15.1%
COc1ccc(OC)c(NC(=O)Nc2c(C)n(C)n(-c3ccccc3)c2=O)c1 -9.85%
Cc1ccc(-c2csc(=Nc3ccccc3)n2Cc2ccc3c(c2)OCO3)cc1 9.8%
CCN(CC)S(=O)(=O)c1ccc2c(c1)nc(CN(C)C(=O)Nc1ccc(C)c(F)c1)n2C 5.71%
CCc1ccccc1NC(=O)CN1C(=O)CCSc2ccc(S(=O)(=O)N3CCCC3)cc21 -17.3%
O=C(OCC1CCCO1)c1ccc2c(c1)N(Cc1ccccc1)C(=O)c1ccccc1S2(=O)=O (stereo not drawn) -12.3%
O=[N+]([O-])c1cncn1CCN1CCOCC1 -2.78%
CCc1ccccc1NC(=O)C(C)n1c(=O)cc(C)c2c(C)nn(-c3ccccc3)c21 (stereo not drawn) -6.15%
COC(=O)c1ccc(CSc2nc3c([nH]c4ccccc43)c(=O)n2-c2cccc(Cl)c2)o1 -22.9%
CCOC(=O)C1CCCN(C(=O)Cn2ncc3c4ccccc4n(Cc4ccccc4)c3c2=O)C1 (stereo not drawn) -24.8%
COc1ccccc1NC(=O)c1cc2c(C)nn(-c3ccccc3)c2s1 1.67% [at 11.5 µM, percent change from vehicle, -100% = no light]
COc1ccc(N2CCN(C(=O)COCc3cc(-c4ccc5c(c4)OCO5)on3)CC2)cc1 -1.7%
COc1ccc(NC(=O)c2sc3nc(C(F)(F)F)cc(C)c3c2N)cc1OC -13.3%
Cc1ccc(NC(=O)c2nc(S(C)(=O)=O)ncc2N(Cc2ccco2)Cc2cccs2)cc1C -20.7%
CCO/C([O-])=N/c1c[n+](N2CCOCC2)no1 -0.231%
Cc1cccc(NC(=O)CCNS(=O)(=O)c2ccc3c(c2)CCN3C(=O)C2CC2)c1 -2.73%
CCOC(=O)C1CCN(C(c2ccc(C)cc2)c2c(O)cc(C)n(CCOC)c2=O)CC1 (stereo not drawn) 2.06%
CCOc1ccc(-c2cc(CCCC(=O)NCCc3cc(OC)c(OC)c(OC)c3)no2)cc1 -78.8%
COc1ccc(CCNC(=O)CCCn2nc(C)c3sc4ccccc4c3c2=O)c(OC)c1 -10.5%
CCOc1ccc(NC(=O)Cn2c(=O)n(CCCS(=O)(=O)C3CCCCC3)c(=O)c3ccccc32)cc1 -3.4%
COC(=O)c1c(C)oc2ccc(N(C(=O)c3ccncc3)S(=O)(=O)c3cc(C)ccc3C)cc12 -38.6%
Cc1ccc(NC(=O)C2CCC(CNS(=O)(=O)c3cccc4nsnc34)CC2)c(Cl)c1 (stereo not drawn) 10.6% [at 11.5 µM, percent change from vehicle, -100% = no light]
COc1ccc(N2CCN(C(=O)C3CCN(S(=O)(=O)c4cn(C)cn4)CC3)CC2)cc1 2.66%
Cc1cccc(N(C)C(=O)Cc2c(C(=O)O)[nH]c3ccccc23)c1 -11.1%
Cc1ccc(-n2ncc3c(N4CCC(Cc5ccccc5)CC4)ncnc32)cc1C 10.7%
Cc1ccc(OC(=O)CSc2nnc(-c3ccc4c(c3)OCO4)o2)cc1 -24.6%
COCCCn1c(-c2ccc(S(=O)(=O)N3CCOCC3)cc2)csc1=Nc1ccccc1 -68.5%
CC1(c2ccc(Cl)cc2)CC(C)(C)N(C(=O)c2cccc(F)c2)c2ccccc21 (stereo not drawn) -32.4%
COc1ccc(CNC(=O)c2cc3sccc3n2Cc2ccc(C)cc2)cc1 13.1%
O=C(Cc1ccccc1)Nc1sc2c(c1C(=O)Nc1ccc(Br)cc1)CCCC2 -26.4%
Cc1ccc(NC(=O)C2CCN(c3nc(-c4ccc(C(C)C)cc4)no3)CC2)c(Cl)c1 -90%
Cc1ccc(C(=O)Oc2cc(-c3ccc4c(c3)OCO4)cc(=O)c3c(C)oc(C)c23)cc1 -15.3%
Cc1ccc(C(=O)NC2(C(F)(F)F)N=C(c3ccccc3)N(Cc3ccccc3)C2=O)cc1 (stereo not drawn) -22.9%
CCc1c(C)[nH]c2c1C(=O)C(CN1CCOCC1)CC2 (stereo not drawn) -7.98%
CC(=O)c1ccc(NS(=O)(=O)c2ccc(-n3cccn3)cc2)cc1 -34.8%
CCOc1ccc(CNC(=O)c2cc(-c3ccc(Cl)s3)nc3ccccc23)cc1 -16%
COc1ccccc1NC(=O)Cn1c(=O)n(CC(=O)NCc2ccccc2Cl)c(=O)c2sccc21 15.2%
COc1ccc(C(=O)Oc2c(Sc3ccc(C)cc3)c(C)nn2C(C)(C)C)cc1OC -34.6%
O=C(c1ccc2c(c1)N(Cc1ccc(Cl)cc1)C(=O)c1ccccc1S2=O)N1CCCCC1 (stereo not drawn) -31.6%
CCN(CC)CCNC(=O)c1cn(CC)c2ccc(S(=O)(=O)N(C)C3CCCCC3)cc2c1=O -6.15%
CCC(C(=O)NC1CCCCC1)n1c(SCc2cccc(C)c2)nc2ccncc21 (stereo not drawn) -13.3%
COCc1c(Br)c(C)nc2sc3c(=O)n(-c4cccc(Br)c4)nnc3c12 -10.4%
N#Cc1ccccc1CSc1nnc2ccc3ccccc3n12 17.5%
CC(NC(=O)c1ccco1)c1nc(-c2ccccc2)no1 (stereo not drawn) -11.8%
COc1cc(C(=O)NCCCCCC(=O)O)cc(OC)c1OC -5.57%
Cc1cc(=O)n(CC(=O)NC(C)c2ccccc2)c2c1c(C)nn2-c1cccc(F)c1 (stereo not drawn) -18.1%
Nc1ccc([N+](=O)[O-])cc1O -9.76% [at 116 µM, percent change from vehicle, -100% = no light]
CCN1C(=O)c2ccccc2S(=O)(=O)c2ccc(C(=O)NCc3ccc(OC)cc3)cc21 -15.9%
COC(=O)c1cc(NC(=O)c2sc3ccccc3c2Cl)cc(C(=O)OC)c1 -3.75%
Cc1cccc(N2CCN(c3ncnc4c3nc3n4CCCCC3)CC2C)c1 (stereo not drawn) -92.6%
COC(=O)c1cc2occc2n1CC(=O)Nc1ccc(C)cc1Cl 14.9%
N[C@@H](CCC(=O)N[C@@H](CS)C(=O)NCC(=O)O)C(=O)O -5.21% [at 25.1 µM, percent change from vehicle, -100% = no light]
